Measured values reported in PubChem BioAssay AID485281 (National Center for Advancing Translational Sciences (NCATS), 2010).
Out of some 350,000 compounds screened, about 260 (0.074%) were called active. The shares of active, inactive and inconclusive entries below differ from those in the screen. Calls come from the whole dose curve; as a rule, active = well fitted inhibition curve with a large enough effect; inconclusive = small, poorly fitted or top-dose-only effect; inactive = no such curve, though single readings can be large or run the other way. Potencies of inconclusive entries are doubtful fits and often do not repeat.

Target: Ferritin light chain (Equus caballus) (UniProt P02791)
Assay: qHTS Assay for Identification of Novel General Anesthetics; note: nearly all actives have a fitted effect of over 20% in size
Conditions: apoferritin/1-aminoanthracene competitive binding, fluorescence; series mostly up to 77.5 µM
Outline: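 Apoferritin-based anesthetic binding model; compound displacement of fluorescent 1-AMA measured as endpoint fluorescence after 10 minutes at room temperature, scaled to free-ligand and complex controls.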
Potency is the fitted concentration of half-maximal effect; tags give direction and shape of the fitted curve.

UniProt P02791, sequence (P02791 whole entry, looked up): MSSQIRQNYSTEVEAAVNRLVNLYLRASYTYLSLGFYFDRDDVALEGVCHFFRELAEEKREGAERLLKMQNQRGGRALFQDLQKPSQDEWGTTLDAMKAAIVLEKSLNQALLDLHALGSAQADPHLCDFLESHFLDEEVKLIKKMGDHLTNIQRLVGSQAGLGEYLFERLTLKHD

Potency, inactive:
O=C(CN1CCCN(S(=O)(=O)c2ccc(Br)cc2)CC1)Nc1cccc(C(F)(F)F)c1
CC(=O)Nc1ccc(C2C(=O)c3ccccc3C2=O)cc1
CCOc1ccccc1Oc1coc2cc(O)ccc2c1=O
Cc1cccc(C)c1OCC(=O)Nc1ccccc1C(F)(F)F
c1ccc(N2CCN(c3nc(NCc4ccco4)c4ccccc4n3)CC2)cc1
CCOC(=O)C1=C(C)NC(=O)NC1c1cc2c(cc1Br)OCO2 (stereo not given)
CCOc1cc(CNc2ccccc2)cc(Br)c1OCc1ccc(F)cc1
Cc1ccc(-c2cc(-c3coc4ccc(Cl)cc4c3=O)c3c(n2)-c2ccccc2OC3)cc1
Oc1ccc(/C=N/n2c3ccccc3c3ccccc32)cc1
CCCOc1ccc(C(=O)Nc2ccc3oc(-c4cccc(Cl)c4Cl)nc3c2)cc1
O=C(CP(=O)(c1ccccc1)c1ccccc1)N/N=C/c1cc(Br)cc(Br)c1O
O=C(c1ccc(Cl)cc1)C(CN1CCCCC1)c1ccccc1 (stereo not given)
CCOC(=O)N1CCN(c2cc(NCCC(=O)O)c3c4c(onc24)-c2ccccc2C3=O)CC1
COc1ccccc1NC(=O)c1[nH]c(C)c(C(C)=O)c1C
Cc1ccc(NC(=O)C(=Cc2ccc(C(=O)O)cc2)C(=O)Nc2ccc(C)cc2C)c(C)c1

Potency, inconclusive:
O=C1C2C3C=CC(CC3)C2C(=O)N1c1ccc(F)cc1 (stereo not given) 28.2 µM [inhibitor, partial curve]
Cc1cc2c(cc1S(=O)(=O)Nc1c(C)cccc1C)n(C)c(=O)c(=O)n2C 15.8 µM [inhibitor, partial curve]
CCCc1cc(-c2n[nH]c(C)c2-c2ccc(C(=O)OCC)o2)c(O)cc1O 12.6 µM [inhibitor, partial curve]
O=C1NC(=S)N/C1=C/c1cc([N+](=O)[O-])ccc1N1CCOCC1 25.1 µM [inhibitor, partial curve]
CC(C)Oc1cccc(C(=O)NC(=S)N2CCN(c3ccc(C(F)(F)F)cc3[N+](=O)[O-])CC2)c1 14.1 µM [inhibitor, partial curve]
OC(c1ccccc1)c1nc2ccccc2s1 (stereo not given) 14.1 µM [inhibitor, partial curve]
CCOC(=O)Cn1nc(-c2ccc(Cl)cc2)ccc1=O 25.1 µM [inhibitor, partial curve]
CCC(CC)C(=O)Nc1cccc(SC)c1 25.1 µM [inhibitor, partial curve]
O=C(COC(=O)C1CCCCC1)Nc1ccc([N+](=O)[O-])cc1 31.6 µM [inhibitor, partial curve]
COc1ccc(Cn2c(SCc3cc(C)ccc3C)nc3cc(OC)c(OC)cc3c2=N)cc1 2.82 µM [inhibitor, full curve]
Cc1ccc(CNC(=O)CCCCCn2c(=O)c3sccc3n(CC(=O)Nc3ccc(C)c(F)c3)c2=O)cc1 11.2 µM [inhibitor, single point]
COC(=O)CSCC(=O)Nc1nnc(-c2ccccc2C)s1 28.2 µM [inhibitor, partial curve]
COc1ccc(/C=N/NC(=O)c2ccn[nH]2)cc1COc1ccc(Cl)cc1Cl 12.6 µM [inhibitor, partial curve]
CCN(CC)S(=O)(=O)c1ccc(NC(=O)C(OC)c2ccccc2)cc1 (stereo not given) 28.2 µM [inhibitor, partial curve]
O=C1CCCc2ccccc2N1Cc1ccccc1 28.2 µM [inhibitor, single point]
CCN(CC)S(=O)(=O)c1cccc(NC(=O)COC(=O)c2n[nH]c(=O)c3ccccc23)c1 14.1 µM [inhibitor, partial curve]
CCCSc1nc(NCc2ccco2)c2c3c(sc2n1)COC(C)(C)C3 12.6 µM [inhibitor, partial curve]
O=C1c2ccccc2C(=O)c2cc(S(=O)(=O)Nc3ccccc3)ccc21 56.2 µM [inhibitor, single point]
COc1ccc(Br)cc1C(=O)Nc1cccc(NC(=O)c2ccco2)c1 15.8 µM [inhibitor, partial curve]
c1ccc(-c2ccc(C3=Nn4c(nnc4-c4cc(-c5ccccc5)n[nH]4)SC3)cc2)cc1 39.8 µM [inhibitor, partial curve]
O=C(COc1ccccc1)N1CCc2ccccc21 35.5 µM [inhibitor, partial curve]
O=C(CSc1nnc(-c2ccc(Br)cc2)o1)Nc1cccc2ccccc12 8.91 µM [inhibitor, full curve]
Cc1nc(N2CCCCC2)c2c(C)c(C(=O)Nc3cccc(C(F)(F)F)c3)sc2n1 3.55 µM [inhibitor, full curve, poor fit]
CCCCSc1nnc(CCCCCNC(=O)OC(C)(C)C)o1 35.5 µM [inhibitor, partial curve]
O=C(c1cc(COc2cccc3cnccc23)on1)N1CCCC(CCCO)C1 (stereo not given) 11.2 µM [inhibitor, partial curve]
COC(=O)c1ccc(-c2ccc(Cl)cc2)nc1C 31.6 µM [inhibitor, single point]
O=C(Cc1csc(N2CCOCC2)n1)N/N=C/c1ccc(F)cc1 35.5 µM [inhibitor, single point]
COc1cc(OC)c(C2CC(=O)N3CN(c4ccc(C)cc4)CSC3=C2C#N)cc1OC (stereo not given) 17.8 µM [inhibitor, partial curve]
Cc1ccc([N+](=O)[O-])cc1S(=O)(=O)N1CCC(C)CC1 20 µM [inhibitor, partial curve]
COc1ccccc1OCC(=O)N1CC2(C)CC1CC(C)(C)C2 (stereo not given) 11.2 µM [inhibitor, partial curve]
